# Test results published in the supplement of paper PMC8728848.
# The other results are listed elsewhere or left out.
# B1: Mg3lysM (Mycosphaerella graminicola) (protein)
# chain: APQNPPTSCSAAPQPTGTGSPGTVCGSTTFTNYTVKAGDTLGAIAKQYNSGVCDIAKVNGIDNPDYIKPDQVLSIPANCVTPDNTSCVKPVPVITNTCVLGVGSTYTVKSGDSFSAIATSFNITLASLEARNPQIPNYDLIFPGQVINTPLCPNSVCDSIGTYVIESGDIFYNLAQSNNVTVGQLESLNVNVNVTDIHPGDIIILPHNCHNITASA
# Experiments:
# Experiment in all cases: glycan array binding signal (z-score within array); higher = stronger binding
# Conditions in all cases: glycan notation: IUPAC condensed, linker removed
# Gal6S(b1-4)Glc6S = molecular target: Gal6S(b1-4)Glc6S
# Outline: (§1)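 Arrays were curated from the Consortium for Functional Glycomics database, 3228 in total, and kept only where the protein sequence was available. Binding is expressed as a within-array Z-score. This score was averaged across arrays of the same protein sequence at different concentrations or buffers and across linkers, and negative values can be read as non-binding.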
# Gal6S(b1-4)GlcNAc = molecular target: Gal6S(b1-4)GlcNAc
# Outline: as §1
# Gal6S(b1-4)GlcNAc6S = molecular target: Gal6S(b1-4)GlcNAc6S
# Outline: as §1
# GalNAc(a1-3)Gal = molecular target: GalNAc(a1-3)Gal
# Outline: as §1
# GalNAc(a1-3)GalNAc = molecular target: GalNAc(a1-3)GalNAc
# Outline: as §1
# [1] = molecular target: GalNAc(a1-3)GalNAc(b1-3)Gal(a1-4)Gal(b1-4)Glc
# Outline: as §1
# [2] = molecular target: GalNAc(a1-3)GalNAc(b1-3)Gal(a1-4)Gal(b1-4)GlcNAc
# Outline: as §1
# GalNAc(b1-3)Gal = molecular target: GalNAc(b1-3)Gal
# Outline: as §1
# [3] = molecular target: GalNAc(b1-3)Gal(a1-4)Gal(b1-4)GlcNAc
# Outline: as §1
# [4] = molecular target: GalNAc(b1-3)Gal(a1-4)Gal(b1-4)GlcNAc(b1-3)Gal(b1-4)Glc
# Outline: as §1
# [5] = molecular target: GalNAc(b1-3)Gal(a1-6)Gal(b1-4)Glc
# Outline: as §1
# GalNAc(b1-3)GalNAc = molecular target: GalNAc(b1-3)GalNAc
# Outline: as §1
# GalNAc(b1-3)GlcNAc = molecular target: GalNAc(b1-3)GlcNAc
# Outline: as §1
# GalNAc(b1-4)Gal(b1-4)Glc = molecular target: GalNAc(b1-4)Gal(b1-4)Glc
# Outline: as §1
# GalNAc(b1-4)GlcNAc = molecular target: GalNAc(b1-4)GlcNAc
# Outline: as §1
# [6] = molecular target: GalNAc(b1-4)GlcNAc(b1-2)Man
# Outline: as §1
# [7] = molecular target: GalNAc(b1-4)GlcNAc(b1-2)Man(a1-3)[GalNAc(b1-4)GlcNAc(b1-2)Man(a1-6)]Man(b1-4)GlcNAc(b1-4)GlcNAc
# Outline: as §1
# [8] = molecular target: GalNAc(b1-4)GlcNAc(b1-3)GalNAc(b1-4)GlcNAc
# Outline: as §1
# GalNAc(b1-4)GlcNAc6S = molecular target: GalNAc(b1-4)GlcNAc6S
# Outline: as §1
# GalNAc(b1-6)GalNAc = molecular target: GalNAc(b1-6)GalNAc
# Outline: as §1
# GalNAc3S(b1-4)GlcNAc = molecular target: GalNAc3S(b1-4)GlcNAc
# Outline: as §1
# GalNAc3S(b1-4)GlcNAc3S = molecular target: GalNAc3S(b1-4)GlcNAc3S
# Outline: as §1
# [9] = molecular target: GalNAc3S(b1-4)[Fuc(a1-3)]GlcNAc
# Outline: as §1
# GalNAc4S6S(b1-4)GlcNAc = molecular target: GalNAc4S6S(b1-4)GlcNAc
# Outline: as §1
# GalNAc6S(b1-4)GlcNAc = molecular target: GalNAc6S(b1-4)GlcNAc
# Outline: as §1
# Glc(a1-4)Glc = molecular target: Glc(a1-4)Glc
# Outline: as §1
# [10] = molecular target: Glc(a1-4)Glc(a1-4)Glc(a1-4)Glc
# Outline: as §1
# Glc(a1-6)Glc(a1-6)Glc = molecular target: Glc(a1-6)Glc(a1-6)Glc
# Outline: as §1
# [11] = molecular target: Glc(a1-6)Glc(a1-6)Glc(a1-6)Glc
# Outline: as §1
# Glc(b1-4)Glc = molecular target: Glc(b1-4)Glc
# Outline: as §1
# Glc(b1-6)Glc = molecular target: Glc(b1-6)Glc
# Outline: as §1
# GlcA(b1-3)Gal = molecular target: GlcA(b1-3)Gal
# Outline: as §1
# GlcA(b1-3)GlcNAc = molecular target: GlcA(b1-3)GlcNAc
# Outline: as §1
# GlcA(b1-6)Gal = molecular target: GlcA(b1-6)Gal
# Outline: as §1
# [12] = molecular target: GlcA3S(b1-3)Gal(b1-4)GlcNAc(b1-2)Man
# Outline: as §1
# [13] = molecular target: GlcA3S(b1-3)Gal(b1-4)GlcNAc(b1-3)Gal(b1-4)Glc
# Outline: as §1
# [14] = molecular target: GlcNAc(a1-3)Gal(b1-4)GlcNAc
# Outline: as §1
# [15] = molecular target: GlcNAc(a1-4)Gal(b1-3)GlcNAc
# Outline: as §1
# [16] = molecular target: GlcNAc(a1-4)Gal(b1-4)GalNAc
# Outline: as §1
# [17] = molecular target: GlcNAc(a1-4)Gal(b1-4)GlcNAc
# Outline: as §1
# [18] = molecular target: GlcNAc(a1-4)Gal(b1-4)GlcNAc(b1-3)Gal(b1-4)Glc
# Outline: as §1
# [19] = molecular target: GlcNAc(a1-4)Gal(b1-4)GlcNAc(b1-3)Gal(b1-4)GlcNAc
# Outline: as §1
# [20] = molecular target: GlcNAc(a1-4)Gal(b1-4)GlcNAc(b1-3)Gal(b1-4)GlcNAc(b1-3)Gal(b1-4)GlcNAc
# Outline: as §1
# [21] = molecular target: GlcNAc(a1-4)Gal(b1-4)GlcNAc(b1-3)Gal(b1-4)[Fuc(a1-3)]GlcNAc(b1-3)Gal(b1-4)[Fuc(a1-3)]GlcNAc
# Outline: as §1
# [22] = molecular target: GlcNAc(a1-6)Gal(b1-4)GlcNAc
# Outline: as §1
binder,measurement,setting,value
B1,glycan array binding signal (z-score),Gal6S(b1-4)Glc6S,-0.066
same,glycan array binding signal (z-score),Gal6S(b1-4)GlcNAc,-0.123
same,glycan array binding signal (z-score),Gal6S(b1-4)GlcNAc6S,-0.082
same,glycan array binding signal (z-score),GalNAc(a1-3)Gal,-0.057
same,glycan array binding signal (z-score),GalNAc(a1-3)GalNAc,-0.14
same,glycan array binding signal (z-score),[1],-0.115
same,glycan array binding signal (z-score),[2],-0.132
same,glycan array binding signal (z-score),GalNAc(b1-3)Gal,-0.143
same,glycan array binding signal (z-score),[3],-0.285
same,glycan array binding signal (z-score),[4],-0.113
same,glycan array binding signal (z-score),[5],-0.127
same,glycan array binding signal (z-score),GalNAc(b1-3)GalNAc,-0.061
same,glycan array binding signal (z-score),GalNAc(b1-3)GlcNAc,-0.164
same,glycan array binding signal (z-score),GalNAc(b1-4)Gal(b1-4)Glc,-0.047
same,glycan array binding signal (z-score),GalNAc(b1-4)GlcNAc,0.043
same,glycan array binding signal (z-score),[6],0.08
same,glycan array binding signal (z-score),[7],-0.148
same,glycan array binding signal (z-score),[8],-0.101
same,glycan array binding signal (z-score),GalNAc(b1-4)GlcNAc6S,-0.006
same,glycan array binding signal (z-score),GalNAc(b1-6)GalNAc,-0.032
same,glycan array binding signal (z-score),GalNAc3S(b1-4)GlcNAc,-0.021
same,glycan array binding signal (z-score),GalNAc3S(b1-4)GlcNAc3S,-0.061
same,glycan array binding signal (z-score),[9],0.06
same,glycan array binding signal (z-score),GalNAc4S6S(b1-4)GlcNAc,-0.136
same,glycan array binding signal (z-score),GalNAc6S(b1-4)GlcNAc,-0.073
same,glycan array binding signal (z-score),Glc(a1-4)Glc,-0.03
same,glycan array binding signal (z-score),[10],-0.014
same,glycan array binding signal (z-score),Glc(a1-6)Glc(a1-6)Glc,-0.018
same,glycan array binding signal (z-score),[11],-0.032
same,glycan array binding signal (z-score),Glc(b1-4)Glc,0.035
same,glycan array binding signal (z-score),Glc(b1-6)Glc,-0.092
same,glycan array binding signal (z-score),GlcA(b1-3)Gal,-0.097
same,glycan array binding signal (z-score),GlcA(b1-3)GlcNAc,-0.059
same,glycan array binding signal (z-score),GlcA(b1-6)Gal,-0.012
same,glycan array binding signal (z-score),[12],-0.096
same,glycan array binding signal (z-score),[13],-0.193
same,glycan array binding signal (z-score),[14],-0.138
same,glycan array binding signal (z-score),[15],-0.03
same,glycan array binding signal (z-score),[16],-0.056
same,glycan array binding signal (z-score),[17],-0.104
same,glycan array binding signal (z-score),[18],-0.085
same,glycan array binding signal (z-score),[19],-0.091
same,glycan array binding signal (z-score),[20],-0.013
same,glycan array binding signal (z-score),[21],-0.042
same,glycan array binding signal (z-score),[22],-0.108
